Test results from PubChem BioAssay AID1745853 (National Center for Advancing Translational Sciences (NCATS), 2022).
Some of the results follow. Shown are side measurements of this screen, not its main read-out; they come without a call.

Legend:
Test in all cases: Primary Screen for Target Class Profiling of Small Molecule Inhibitors of Methyltransferases
[1] = target: Glycine N-methyltransferase (Homo sapiens) (UniProt Q14749); details: purified enzyme, MTase-Glo SAH luminescence; measured here: GNMT inhibition; at 40 µM; stronger effect = lower value
Summary of the method: (§1)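 Each enzyme was assayed with SAM and its substrate. SAH formation detected by MTase-Glo luminescence; single-point 40 uM screen[…].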

[2] = target: Guanidinoacetate N-methyltransferase (Homo sapiens) (UniProt Q14353); details: purified enzyme, MTase-Glo SAH luminescence; measured here: GAMT inhibition; at 40 µM; stronger effect = lower value
Summary of the method: as §1

[3] = target: Histamine N-methyltransferase (Homo sapiens) (UniProt P50135); details: purified enzyme, MTase-Glo SAH luminescence; measured here: HNMT inhibition; at 40 µM; stronger effect = lower value
Summary of the method: as §1

[4] = target: Nicotinamide N-methyltransferase (Homo sapiens) (UniProt P40261); details: purified enzyme, MTase-Glo SAH luminescence; measured here: NNMT inhibition; at 40 µM; stronger effect = lower value
Summary of the method: as §1

[5] = target: Phenylethanolamine N-methyltransferase (Homo sapiens) (UniProt P11086); details: purified enzyme, MTase-Glo SAH luminescence; measured here: PNMT inhibition; at 40 µM; stronger effect = lower value
Summary of the method: as §1
On the % scale 0 is the no-effect control and ±100 the full control effect.

SMILES | activity change, negative = inhibition [1] [%] | activity change, negative = inhibition [2] [%] | activity change, negative = inhibition [3] [%] | activity change, negative = inhibition [4] [%] | activity change, negative = inhibition [5] [%]
Cc1ccc(C(=O)Nc2ccc3c(c2)C(=O)N(C)C2=NCCN23)cc1 | -2.57 | -3.71 | -3.81 | 0.205 | -2.4
CC(C)CCNC(=O)C1(C)Cn2c(c(-n3cccc3)c3ccccc32)C(=O)N1Cc1ccccn1 (configuration not stated) | 0.369 | 0 | -0.036 | -11.7 | -0.447
COc1ccc2cc3n(c2c1)CC(C)(C(=O)NC1CCCCC1)N(c1ccc2c(c1)OCCO2)C3=O (configuration not stated) | 1.1 | 0 | -3.44 | -0.691 | -4.04
CC1CCCC(NC(=O)C2(C)Cn3c(cc4sccc43)C(=O)N2Cc2ccccc2Cl)C1C (configuration not stated) | -3.49 | 3.29 | 1.54 | 6.07 | -4
O=C(c1ccc2c(c1)OCCO2)N1CCc2[nH]nc(-c3ccccc3F)c2C1 | -21.5 | -6.32 | -9.95 | -19 | 6.39
CC(C)c1ccc(CC(=O)N2CCCc3ncc(C(=O)NCCc4c[nH]c5ccccc45)cc32)cc1 | -11.4 | -9.59 | -7.61 | -18.1 | -5.63
C=C(C(=O)OC)[C@@H]1CC=C2C=CC(=O)[C@H](C)[C@@]2(C)C1 | -6.46 | -9.31 | 1.32 | -17.8 | -5.65
O=c1c2ccccc2n2c(SCc3ccccc3)nnc2n1Cc1ccccc1 | -0.293 | 0 | -0.319 | -6.16 | 0.138
COc1cccc(C2c3cccn3-c3sc4c(c3CN2C(=O)Nc2ccccc2C(F)(F)F)CCCC4)c1 (configuration not stated) | -0.707 | 3.05 | 7.26 | -2.45 | 5.57
CC1(C(=O)NCc2ccc(F)cc2)Cn2cnc(C(=O)NCc3ccc(Cl)cc3)c2C(=O)N1C1CC1 (configuration not stated) | 3.67 | 0 | 6.53 | 4.17 | 4.89
CN1CCc2ccccc2Cc2[nH]c3ccccc3c2CC1 | -20.7 | 7.5 | -11.5 | -7.32 | 5.22
CCOCCCN1C(=O)c2ccc(-c3ccco3)n2CC1(C)C(=O)NC1CCCCC1 (configuration not stated) | -1.91 | -0.392 | 2.16 | -4.13 | -1.04
Cc1ccc(CNC(=O)C2(C)Cn3cnc(C(=O)N4CCCCC4)c3C(=O)N2C2CC2)cc1 (configuration not stated) | -0.556 | 0 | 8.96 | 4.29 | 1.42
CC1(C(=O)NC2CCCCCCC2)Cn2c(ccc2-c2ccco2)C(=O)N1CCN1CCCCCC1 (configuration not stated) | -3.94 | 3.48 | -7.8 | -7.55 | -2.52
Cc1ccc(Cn2c(=O)c3ccc(C(=O)NCC(C)C)cc3n3c(=O)n(CC(=O)NC(C)C)nc23)cc1 | -0.353 | 1.03 | 0.121 | -4.12 | 2.98
NC1=NC2(c3cc(NC(=O)c4ccc(F)cn4)ccc3F)COCC2CS1 (configuration not stated) | 1.29 |  | -6.13 |  | 
CCN1C(=O)c2cc(C(=O)NCCCN3CCCCC3)nn2CC1(C)C(=O)NC1CCCC1 (configuration not stated) | 9.08 | 4.07 | -4.94 | 10.8 | 7.96
C=CCOc1c(OC)ccc2c1CN(Cc1ccccc1)C(=O)CCN2CC(O)COc1ccc(OC)cc1 (configuration not stated) | -8.93 | 0.044 | -1.97 | -32.1 | -1.36
COCCCNC(=O)CCc1nnc2n(Cc3ccc(Cl)cc3)c(=O)c3ccccc3n12 | -10.9 | 0.153 | -7.57 | -1.73 | -7.55
CCc1cccc(N2C(=O)c3cc(C(=O)OC)nn3CC2(C)C(=O)NC2CCCCC2)c1 (configuration not stated) | 7.69 | 0 | 5.65 | 9.48 | 9.35
COC(=O)/C=C/c1ccc(O[C@@H]2O[C@H](CO)[C@@H](O)[C@H](O)[C@H]2O)cc1 | 3.46 | -0.08 | 10.8 | -14.8 | 6.21
CCc1ccc(S(=O)(=O)c2nnn3c2nc(NCCNC(C)=O)c2ccccc23)cc1 | -15.3 | 3.41 | 1.01 | -14.5 | -2.93
COc1ccc(S(=O)(=O)c2nnn3c2nc(Nc2ccccc2C)c2ccccc23)cc1 | -3.4 | 0 | 0.254 | -2.19 | -2.35
O=C(C1CCCN1[S+](=O)([O-])c1cccc(C(F)(F)F)c1)N1CCC(N2Cc3cccn3C2=O)CC1 (configuration not stated) | -1.65 | -0.669 | 0.35 | -2.9 | 4.7
COc1ccc(Cl)cc1NC(=O)N1CCn2c(C)ccc2C1C(C)C (configuration not stated) | 10.8 | 0 | 6.08 | -3.02 | 4.92
O=C(NCc1ccccc1)c1ccc2c(=O)nc3c(-c4ccccc4F)n[nH]n3c2c1 | -31.1 | 3.19 | -2.32 | 1.09 | -2.49
COC(=O)c1cc2n(n1)CC(C)(C(=O)NC1CCC(C)CC1)N(c1cccc(C)c1C)C2=O (configuration not stated) | 5.3 | 1.46 | 2.65 | 6.48 | 4.19
C/C=C/c1cc(OC)c2c(c1)[C@@H](C)[C@@H](c1ccc(O)c(OC)c1)O2 | 1.42 | 3.01 | 12.2 | -5.83 | 0.586
CCS(=O)(=O)N1CCC(CCOC)(NC(=O)C2CC2)CC1 | 0.472 | -0.14 | 2.63 | -0.408 | 0.612
